# Data reported in ChEMBL document CHEMBL4888484, “Replenishing the malaria drug discovery pipeline: Screening and hit evaluation of the MMV Hit Generation Library 1 (HGL1) against asexual blood stage Plasmodium falciparum ,using a nano luciferase reporter read-out” (2022).
# Hit rate of the full screen: of about 150,000 compounds, about 540 (0.36%) showed an effect of 50% or more. The list shows a part of the results.
# System: Plasmodium falciparum
# Experiment: Primary screen in NF54 nanoGlo assay, in single point, at 2uM, 72h; a lower Z score goes with more inhibition
# Type: functional, Erythrocyte
# Conditions: timepoint 72 hour
SMILES,% Inhibition,Z score
O=C1CCC2(CCN(C(=O)N[C@@H](Cc3ccccc3)c3ccccc3)CC2)N1,-2%,0.45
COc1ccc(CN2CC=C(C)CC2)cc1Cn1cccn1,-17%,1.46
CC[C@H](NC(=O)Cc1ccc(O)cc1)C1CC(O)C1 (stereo not given in full),-11%,1.61
COc1ccccc1CNC(=O)[C@]1(C)Cn2cnc(C(=O)NCCN3CCCC3)c2C(=O)N1C1CC1,-27%,2.7
CCNC(=O)N1CC(C(=O)NCC2CC2)CCC1c1cccc(C)c1 (stereo not given),-19%,2.76
Cn1nc(C(=O)N2C[C@@H]3NC(=O)c4ccc(Cl)c(c4)OCCCn4cc(nn4)CO[C@H]3C2)ccc1=O,-8%,1.45
COc1ccc(N(CC(=O)N2CCNC2=O)C(C)C)cc1F,-3%,0.6
CCOC(=O)c1coc(N2CCN(c3ccc(OC)cc3)C[C@@H]2C)n1,-11%,1.33
O=C(NCc1ccnc(N2CCCC2)n1)c1cccc(Cl)c1,-8%,1.58
COC[C@@H](O)CN(C)Cc1ccc(C#N)cc1Br,-5%,0.4
O=C(c1ccccc1F)N1CCc2nc(N3CCCCC3)nc(Oc3ccc(F)c(F)c3)c2C1,-8%,0.8
CC1CC(C)(C)CCC1NC(=O)CCc1cscn1 (stereo not given),-17%,1.85
Cc1ccc(F)c(NS(=O)(=O)c2cc3n(c2)CCCN(C)C3=O)c1,-11%,1.33
CN(C(=O)C1CC1c1ccc(F)c(F)c1)c1c(F)cccc1C(N)=O (stereo not given),-8%,1.33
COc1cc(OC)nc(N2CC(=O)N[C@@H](C)C2)n1,-10%,1.75
C[C@@H](CCc1ccco1)Nc1nc(-c2ccc[nH]c2=O)cs1,11%,-1.93
Cc1ccc(C)c(Cc2noc(CN3CCNC(=O)C3)n2)c1,0%,0.04
CCc1nc(N(CCOC)CCC(=O)NCc2ccccc2)c2cc(Cl)cc(Cl)c2n1,-4%,0.57
CN(CCC(F)(F)F)C(=O)Nc1ccc(C(C)(C)C)nn1,-8%,1.56
NC(=O)N1CCC[C@H]1C(=O)N1CCC(C2CCCC2)C1 (stereo not given in full),-22%,3.05
CCOC(=O)c1cc2cccnc2nc1C,-8%,0.99
Cc1cc(C)c(-n2cccn2)c([C@H]2NCCc3[nH]cnc32)c1,-9%,0.88

SMILES,% Inhibition,Z score
Cc1ccc(Cl)cc1NC(=O)N(C)CCc1noc(C(=O)NCc2ccc3c(c2)OCO3)n1,14%,-1.32
CCc1nccn1C[C@H](C)N1CCN(Cc2ccc3c(c2)OCO3)CC1,-6%,0.7
NC(=O)[C@H]1CCCN1Cc1ccc2c3c(cccc13)C(=O)OC2,3%,-0.37
COCCN(CC1(C)CCOCC1)C(=O)c1ccsc1,1%,-0.11
Cc1cc(C(=O)N2CCN(c3ncccn3)CC2)on1,1%,-0.19
CC(=O)c1sc(NC(=O)CC2CC3CCC2C3)nc1-c1ccccc1 (stereo not given),-12%,1.53
NC(=O)C1CCCC(NC(=O)CN2C(=O)c3ccccc3C2=O)C1 (stereo not given),29%,-3.24
CC(C)(C)C(=O)CNC(=O)C1(O)CCCC1,-2%,0.29
COc1cc2c(cc1OC)CN(C(=O)c1ccc(CS(=O)(=O)c3ccccc3)o1)CC2,9%,-1.02
O=C1NCCOCCN(S(=O)(=O)c2cccnc2)[C@H]2CCC[C@@H]12,1%,-0.1
O=C(Nc1nnc(CC2CCCC2)s1)c1cnccn1,0%,-0.05
Cc1cnc(NC(=O)C2C3CCCC32)[nH]1 (stereo not given),-1%,0.11
O=C(NC1CCN(Cc2ccccc2)CC1)c1n[nH]c2c1CCc1ccccc1-2,2%,-0.15
CN(Cc1ccccc1Br)C(=O)CCNC(=O)CC#N,1%,-0.2
c1cc(OCCO[C@@H]2CCCCO2)cc(-n2ccnc2)c1,-5%,0.68
Cc1nc([C@H](C)n2ccnc2C(C)C)n(CCO)n1,-11%,1.48
CCc1ccc(N(CC)C(=O)Cn2c(=O)c3c(C)cc(C)nc3n(C)c2=O)cc1,-7%,1.03
O=C(CCN1CCCCO1)NCc1cccs1,-14%,2.69
CC1CC(C)CN(S(=O)(=O)N2CCCC(C(=O)NCc3ccccc3Cl)C2)C1 (stereo not given),-5%,0.76
CCCCn1nnnc1NC(=O)N1CCC[C@H]1c1nonc1C,-14%,1.28
CN1CC(=O)N2[C@@H](Cc3c([nH]c4ccccc34)C2(C)C)C1=O,0%,-0.05
O=C(C1CCOC1)N1CCOC(c2ccc(C(F)(F)F)cc2)C1 (stereo not given),-6%,0.64

SMILES,% Inhibition,Z score
CCCn1nc(C(=O)N(C)C[C@H]2COc3ccccc3O2)ccc1=O,-2%,0.36
CCc1cccc(C)c1NC(=O)N1CCS(=O)(=O)CC1,-10%,1.44
COCCN(Cc1ccsc1)C(=O)Cc1sc(C)nc1C,-8%,1.33
O=C(Nc1nc2c(Cl)cccc2n1CC(F)(F)F)[C@@H]1CCCO1,-2%,0.26
CCCN(CCC)C(=O)CCCC(=O)N[C@H]1CCc2c(O)cccc21,-5%,0.73
Cc1ccc(C(=O)N2CCN([C@@H](C)C(=O)N3CCOCC3)CC2)cn1,-14%,1.89
CCn1cc(OCC(=O)N(C)Cc2ccc(Cl)s2)cn1,-12%,1.54
CC(C)(C(=O)NC1CC2(C1)C[C@@H]2N)c1cccc(C(F)(F)F)n1 (stereo not given in full),7%,-1.09
CO[C@H]1C[C@H](NC(=O)N2CC[C@](C)(C(F)(F)F)C2)C1,-8%,0.82
C=CCN(CC(=O)N1CCNC1=O)CC(F)(F)F,-6%,1.21
O=C(Nc1n[nH]c2cc(F)ccc12)C(C1CC1)C1CC1,-14%,1.68
CCN1CC[C@H](Nc2nc(C(C)C)ccc2C#N)C1,0%,0
COc1nccnc1-c1ccc2ncccc2c1,-5%,0.73
COCCc1nc(C2CCC2)n(-c2cccc(C(=O)O)c2)n1,-10%,1.56
CCc1ccc(S(=O)(=O)N2CC[C@H](Oc3cccnn3)C2)s1,-4%,0.43
CCCc1cc(C(=O)N[C@@H](C)C2=CCCCC2)[nH]n1,-3%,0.51
COc1ccc(-c2ccc(C(=O)N3CC[C@H](N)C3)c(F)c2)cc1,-1%,0.15
CC[C@](C)(O)CNC(=O)c1cnn2c(-c3cccnc3)ccnc12,-3%,0.54
CC(=O)NC1(c2nc(C(C)C)no2)CCOCC1,26%,-2.94
O=C(CCc1cccs1)N1CCC[C@H](c2[nH]ncc2Cc2ccccc2)C1,1%,-0.11
Cc1cccc(-n2nc(C(=O)NC3CC3)c(=O)n(Cc3ccccc3C)c2=O)c1,-1%,0.12
Cc1csc([C@H](C)NC(=O)Nc2nnc(C(F)F)s2)n1,0%,0.04

SMILES,% Inhibition,Z score
CC1(NS(=O)(=O)c2ccc(OC3CCOCC3)c(F)c2)CCCCC1,-17%,1.85
O=C(CN(Cc1ccco1)S(=O)(=O)c1ccccc1)N1CCC(Cc2ccccc2)CC1,-6%,0.59
CC(CN1CCCC1=O)NC(=O)N1CCCC1C=Cc1ccccc1 (stereo not given),-8%,0.85
CCN(C)C(=O)c1cccc(Nc2c(Oc3ccc4c(c3)OCO4)cnn(-c3cccc(Cl)c3)c2=O)c1,-11%,1.04
Cc1ccc(CCOC(=O)c2ccc(C#N)cn2)cc1,-1%,0.09
O=C(c1cc(Cl)c2c(c1)OCCCO2)N1CCN(Cc2nc(-c3cccs3)no2)CC1,11%,-1.33
Cc1ccc(CC(Cc2ccc(C)cc2)N(C)C(=O)CCc2c(C)nn(C)c2C)cc1,-4%,0.68
Cc1c(Cl)cccc1NC(=O)CN1N=C(C(=O)Nc2ccccc2)CCC1=O,31%,-4.41
CCNc1ccc(-c2noc([C@@H](C)c3cnn(C)c3)n2)cn1,-11%,1.51
Cc1nc(Cc2nc(-c3ccc4c(c3)OCCCO4)cs2)cs1,-2%,0.26
C#CCNC(=O)CNC(=O)c1cccc(Cl)c1C,-12%,2.3
CCc1noc(NC(C)=O)c1-c1ccc(C)c(S(=O)(=O)Nc2ccc(F)cc2C)c1,-9%,1.24
Cc1ccc([C@H](C)N(C)Cc2noc(Cc3ccccc3C)n2)cc1,-7%,1.01
NC(=O)N1CCCN(c2ncc(Br)c3ccccc23)CC1,-43%,5.08
O=C(NCCC1=CCCCC1)c1cccc(Oc2cc(-c3cccc(F)c3)ncn2)c1,3%,-0.51
Cc1ccc(CCC(=O)N2CC[C@H](N(C)C)[C@H](CCCO)C2)cc1C,7%,-1.33
OC(Cn1cnc2c(N3CCOCC3CC3CCC3)ncnc21)C1CCCO1 (stereo not given),-22%,3.22
O=C(NCCc1ccccc1)c1cc2n(n1)CCN(Cc1ccc(C(F)(F)F)cc1)C2=O,2%,-0.2
CCOC(=O)C1C2C(=O)N(c3ccc(C)cc3C)C(=O)C12 (stereo not given),0%,0.03
